# PubChem BioAssay AID1240 (Sanford-Burnham Center for Chemical Genomics, 2008)
# The campaign covered roughly 50,000 compounds. About 800 (1.6%) showed an effect of 50% or more. Some of the results follow.
# Target: Bcl-2-like protein 10 (Homo sapiens) (UniProt Q9HD36)
# Experiment: TR3 peptide-Bcl-B binding displacers, biochemical primary FP assay, phenotype converters (AID 1240);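 also: 0% = Bcl-B with tracer peptide and DMSO and 100% = tracer peptide lacking Bcl-B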
# Conditions: GST-Bcl-B / FITC-TR3 peptide fluorescence polarization; stronger effect = higher value; compound at 3.75 mg/L
# UniProt Q9HD36, sequence (Q9HD36 whole entry, looked up): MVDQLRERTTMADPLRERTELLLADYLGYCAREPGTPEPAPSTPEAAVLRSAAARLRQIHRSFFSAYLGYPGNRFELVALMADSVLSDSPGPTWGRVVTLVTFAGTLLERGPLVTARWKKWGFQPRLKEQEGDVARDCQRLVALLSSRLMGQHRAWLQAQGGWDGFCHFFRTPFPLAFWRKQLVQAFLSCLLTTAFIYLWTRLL
row,Structure (SMILES),displacement [%]
1,COc1ccc(N2C(=O)c3ccccc3NC2c2ccc(OC)c(CN3C(=O)c4ccccc4C3=O)c2)cc1 (centres undefined),-4.2
2,COc1ccc(NC(=O)C(=O)NCc2ccc(Cl)cc2)cc1Cl,-3.9
3,CCOc1ccc(NC(=O)CN(c2ccccc2OC)S(=O)(=O)c2ccccc2)cc1,-2.9
4,COc1ccc(S(=O)(=O)N2CCN(C3CCC(c4ccccc4)CC3)CC2)cc1 (centres undefined),16.9
5,O=S(=O)(Nc1ccc(Nc2ccccc2)cc1)c1ccccc1,-0.6
6,CC(C)CN(CC(C)C)C(=O)c1ccccc1Br,-2.2
7,COc1cc(NC(=O)c2cccs2)c(OC)cc1NC(=O)c1cccs1,-6.2
8,COc1ccc(C(C)(C)C)cc1NC(=O)C1CC(=O)N(c2ccccc2)C1 (centres undefined),8.8
9,COc1ccc(CCC(=O)NCCC(c2ccccc2)c2ccccc2)cc1,1.4
10,O=C(c1ccc(F)cc1)N1CCN(c2ccc(Cl)cc2)CC1,-5.6
11,N#Cc1c(/N=C/c2cc(Br)ccc2O)sc2c1CCN(Cc1ccccc1)C2,0.8
12,CCCC(=O)Nc1ccc2nn(-c3ccc(OCC)cc3)nc2c1,-0.4
13,CCOc1cc(/C=N/NC(=O)c2cccnc2)ccc1OC(=O)c1ccc([N+](=O)[O-])cc1,7.1
14,CCn1ccnc1C(O)c1ccccc1OC (centres undefined),12
15,COc1ccc(/C=C2\SC(=Nc3cccc(Cl)c3Cl)NC2=O)c(OC)c1,-0.2
16,C=CCOc1c(I)cc(C=C2C(=O)NC(=S)NC2=O)cc1OCC,9.6
17,C/C(=N\NC(=O)c1cc(-c2ccccc2)n[nH]1)c1ccc([N+](=O)[O-])cc1,-15.5
18,CCOc1cc(/C=N/n2cnnc2)cc(Br)c1OCCOc1ccccc1OC,-4.5
19,O=[N+]([O-])c1ccc(C[n+]2cc(-c3ccc(Cl)c(Cl)c3)n3c2CCC3)cc1,9.6
20,O=C1/C(=C/c2cc(Cl)cc(Cl)c2O)SC(=S)N1Cc1ccccc1,6
21,Cc1ccc(N2C(=O)C(=Cc3ccc(O)cc3)C(=O)N(c3ccc(C)cc3)C2=S)cc1,-36.4
22,COc1ccc(C(=O)N/C(=C\c2ccccc2)C(=O)NCCCN(C)C)cc1,9.9

row,Structure (SMILES),displacement [%]
1,O=C(CNC(=O)c1ccc(F)cc1)N=Nc1c(O)n(Cc2ccc3c(c2)OCO3)c2ccccc12,-17.6
2,CC(=O)CC(=O)Nc1ccc(Cl)cc1Cl,1.4
3,CCOC(=O)C1=CN(c2ccc(OCC)cc2)C=C(C(=O)OCC)C1c1ccccc1F,-12.6
4,CC(C)(C)c1ccc(C=NN2CCN(Cc3ccccc3Cl)CC2)cc1,-8.8
5,O=C1NC(=O)N(c2ccccc2)C(=O)/C1=C\c1ccc(-c2ccccc2[N+](=O)[O-])o1,2.7
6,CN1CCN(NC(=O)c2ccc(C(C)(C)C)cc2)CC1,-3.4
7,O=C(NCc1ccco1)C(=O)Nc1ccc([N+](=O)[O-])cc1,9.2
8,CCC(Oc1ccccc1)C(=O)Nc1sc(C)c(C)c1C#N (centres undefined),7.8
9,C=CCOc1ccc(S(=O)(=O)c2ccc(OCC=C)cc2)cc1,12.4
10,N/C(=N\OC(=O)c1ccc(I)cc1)c1ccc([N+](=O)[O-])cc1,-1.6
11,Cc1ccc(S(=O)(=O)N(C)c2cccc3cccnc23)cc1,16.1
12,CCOC(=O)c1c(-c2ccccc2)oc2cc(Br)c(O)cc12,10.8
13,O=C(CSc1nc2sc3c(c2c(=O)n1-c1ccc(Cl)cc1)CCCC3)c1ccccc1,-9.5
14,C=CCn1c(SCC(=O)O)nc2sc3c(c2c1=O)CCC3,-4.5
15,CCOC(=O)c1c(NC(=O)c2ccc(Cl)c([N+](=O)[O-])c2)sc2c1CCC2,2
16,COC(=O)CCN1C(=O)/C(=C\c2ccc(C)cc2)SC1=S,0.6
17,O=C(Nc1nnc(CCSCCc2nnc(NC(=O)c3ccco3)s2)s1)c1ccco1,-7.5
18,COc1ccc(C(=O)N2CC(C)OC(C)C2)cc1[N+](=O)[O-] (centres undefined),-6.5
19,CC1=C(C(=O)Nc2ccccc2)C(c2ccc(Br)cc2)NC(=O)N1 (centres undefined),14.6
20,CCSc1nnc(NC(=O)c2cccc([N+](=O)[O-])c2)s1,-4.2
21,COc1ccc(N2C(=O)C(Cl)=C(Nc3cccc(OC)c3)C2=O)cc1,15.9
22,c1ccc(-c2cn3nc(-c4ccccc4)sc3n2)cc1,0.8

row,Structure (SMILES),displacement [%]
1,COc1ccccc1C(=O)N1CCN(Cc2cc(OC)c(O)c(OC)c2)CC1,-2.7
2,Cc1cc(C)cc(CSCC(=O)Nc2c(C)n(C)n(-c3ccccc3)c2=O)c1,1.8
3,CN1CN=C2SC3(COC(c4ccncc4)OC3)C(=O)N2C1 (centres undefined),12.4
4,COc1cc(NC(=O)c2cccc(Cl)c2)c(OC)cc1Cl,-5.1
5,CC(=O)n1cc(/C=C2\Sc3ccccc3C2=O)c(-c2ccccc2)n1,145
6,CC(C)CC(=O)N1CCC(Cc2ccccc2)CC1,-1.9
7,CC(=O)c1ccc(NC(=O)c2ccc3c(c2)OCCO3)cc1,10.6
8,Cc1cc([N+](=O)[O-])ccc1N[C@@H]1C[C@H](O)[C@@H](CO)O1,9.8
9,COc1ccc(-c2cc(N3CCOCC3)c3cc(OC)c(OC)cc3c2)cc1OC,3.9
10,O=C(Nc1nc(-c2ccc3ccccc3c2)cs1)C1CC1,-6.7
11,CC(=O)N1c2ccccc2N(Cc2ccc([N+](=O)[O-])cc2)C(=O)C1(C)C,11
12,C=CCN1C(=O)/C(=C\c2ccc(N(C)C)c(Br)c2)C(=O)NC1=S,13.5
13,Cc1ccc(C(=O)N/C(=C/c2ccc(-c3ccc(Cl)cc3Cl)o2)C(=O)NCCCO)cc1,8.5
14,CCc1cccc(C)c1NC(=O)/C=C/c1cccc([N+](=O)[O-])c1,-0.6
15,CCOC(=O)CNC(=O)c1cccc(C)c1,0
16,Cc1ccc(-c2nn(-c3ccccc3)cc2/C=C/C(=O)c2cccs2)cc1,13.1
17,CS(=O)(=O)N(CC(=O)NCc1ccncc1)c1ccc(Oc2ccccc2)cc1,10.2
18,O=C(N/N=C/c1ccc(F)cc1)C(=O)Nc1cccc(Cl)c1,5.5
19,CCC1(C)CC(CCN)(c2ccc(C)cc2)CCO1 (centres undefined),2.3
20,COc1ccc(N=C2SC(C(=O)N3CCN(c4ccccc4)CC3)CC(=O)N2C)cc1 (centres undefined),-4.9
21,COc1ccc(CCNC(=O)c2cc(Cl)ccc2[N+](=O)[O-])cc1OC,-3
22,COc1cc(/C=N/NC(=O)c2cccc(I)c2)ccc1OC(C)=O,4.2

row,Structure (SMILES),displacement [%]
1,Cc1ccc(N(CC(=O)Nc2cc(Cl)cc(Cl)c2)S(C)(=O)=O)cc1Cl,-3.1
2,O=c1c2cnn(-c3ccccc3)c2nc(-c2ccccc2F)n1-c1cccc(Cl)c1,3.5
3,CNc1ccc2c(O)cc(S(=O)(=O)O)cc2c1,26.6
4,COC(=O)C1=C(C)N(CC2CCCO2)C(=O)/C1=C\c1ccc([N+](=O)[O-])cc1 (centres undefined),12.6
5,O=C(O)CCCCCN1C(=O)/C(=C/c2c(F)cccc2Cl)SC1=S,2.3
6,COc1cc(C(=O)Nc2cccc(F)c2)cc(OC)c1OC,5.4
7,COC(=O)c1c(NC(=O)/C=C\C(=O)O)sc(C)c1C,-8.8
8,C=CCn1c2ccccc2c2nnc(SCN3C(=O)c4ccccc4C3=O)nc21,19
9,CCOC(=O)c1c(NC(=O)c2ccc(S(=O)(=O)N3CCCCCC3)cc2)sc(C(C)=O)c1C,-1.3
10,O=C(/C=C/c1ccc(Cl)cc1Cl)NCc1ccccn1,-3.7
11,COc1ccc(-c2cc(-c3ccc(C)cc3)nc(N/N=C/c3cccnc3)n2)cc1OC,1
12,Cc1occc1C(=O)NNC(=O)c1ccc(Cl)cc1,8.8
13,Cc1cc(NC(=O)COC(=O)C(CC(C)C)NC(=O)c2ccccc2)no1 (centres undefined),9.8
14,Cc1ccc(/C=C2\N=C(c3ccc(Cl)cc3)OC2=O)cc1,0
15,CCOc1cc(C=O)c(Br)cc1O,-1.7
16,O=C1NN(c2ccccc2)C(=O)/C1=C/c1ccco1,21.9
17,O=C(/C=C/c1ccccc1)Nc1nnc(-c2ccncc2)s1,-6
18,COc1cc(OC)c(/C=C2\SC(=Nc3ccc(C)c(Cl)c3)NC2=O)cc1Br,-5.7
19,O=S(=O)(Nc1ccccc1F)c1ccc(F)cc1,-5.3
20,O=C(c1ccccc1)N(Cc1ccccc1)CC(O)(c1ccccc1)c1ccccc1,3.3
21,COc1ccc(NC(=O)CN(c2ccccc2Cl)S(C)(=O)=O)cc1OC,3.6
22,CCOC(=O)C1=C(O)/C(=C\c2ccc(OCC)cc2)N=C1C,18.1

row,Structure (SMILES),displacement [%]
1,O=Cc1ccc(OC(=O)c2cccnc2)cc1,-0.7
2,O=C(c1cccc([N+](=O)[O-])c1)c1ccc2c(c1)C(=O)NC2=O,-13.3
3,CCC(=O)Nc1ccc(-c2nc3ccccc3o2)cc1,5.6
4,Cc1nnc(C)n1/N=C\c1ccccc1F,-8.8
5,Cc1cc(C)cc(N2C(=O)/C(=C/c3ccc(O)c(Cl)c3)C(=O)NC2=S)c1,6.5
6,O=C(/C=C/c1cccs1)Nc1nc(-c2cccs2)cs1,-2.6
7,COc1ccccc1C1NC(c2ccccc2OC)C2C(=O)C1C(c1ccccc1OC)NC2c1ccccc1OC (centres undefined),-12.9
8,O=C(CSc1ccncc1)OCc1ccc([N+](=O)[O-])cc1,3.1
9,O=C(O)/C=C\C(=O)Nc1cccc(O)c1,15.1
10,CC(C)(C#N)OC(=O)Nc1ccccc1,4.5
11,O=C1c2ccccc2C(=O)c2c1cccc2N1CCN(CCO)CC1,0.1
12,O=C(NCC1(c2ccccc2)CCCC1)c1cc2ccccc2o1,-5.7
13,CC(Oc1ccc(/C=C2/SC(=S)N(Cc3ccccc3)C2=O)cc1)c1ccccc1 (centres undefined),123
14,COc1ccc(C(=O)NCc2ccc(C)cc2)cc1OC,4.6
15,O=C(CN1C(=O)c2ccccc2C1=O)N1CCCCCC1,-5.6
16,CCN(CC)CCCCOc1ccc(OC)cc1,3.1
17,CC(C)c1ccc(N2C(=O)NC(=O)/C(=C/c3ccc4c(c3)OCO4)C2=O)cc1,-24.8
18,Cc1cc([N+](=O)[O-])ccc1NC(=O)c1cccc(N2C(=O)c3ccccc3C2=O)c1,-19
19,Cc1cc(C)c(OCC(=O)Nc2ccc(Br)cc2)c(C)c1,9.9
20,CCCOC(=O)c1cccc(NC(=O)COc2ccc([N+](=O)[O-])cc2)c1,-7.3
21,COC(=O)C1=C(C)N(CC2CCCO2)C(=O)/C1=C\c1ccc(OC)c([N+](=O)[O-])c1 (centres undefined),-7.3
